Test results: paper PMC4833508 (ACS chemical biology, 2016)

Molecular target: PaFSCT (Diaporthe amygdali, UniProt A2PZA5)
Settings: 3 Co2+; binds in the DMAPP site

PaFSCT, sequence (A2PZA5 390-719 limits assumed): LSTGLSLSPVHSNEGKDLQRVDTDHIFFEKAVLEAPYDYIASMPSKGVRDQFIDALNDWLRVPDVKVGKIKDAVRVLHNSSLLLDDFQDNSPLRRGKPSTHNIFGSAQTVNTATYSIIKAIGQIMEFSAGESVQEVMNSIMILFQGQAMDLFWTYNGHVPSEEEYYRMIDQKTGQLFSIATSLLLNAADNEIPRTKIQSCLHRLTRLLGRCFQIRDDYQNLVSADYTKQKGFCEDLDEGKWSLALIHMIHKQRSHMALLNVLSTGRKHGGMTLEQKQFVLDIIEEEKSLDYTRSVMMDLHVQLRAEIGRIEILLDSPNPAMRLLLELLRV

## NCCC(O)(P(=O)(O)O)P(=O)(O)O [pamidronate]
  X-ray crystal structure: The substrate analogue pamidronate (Supplementary Information Figure S4) binds in the DMAPP binding site
